This note sets out measurements from the supplement of paper PMC10369915.

This is one part of the list. Rule as the data show it: active = 3.2 or more and inactive = the rest. Most of these values are background signal.
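Also: displayed peptides selected on beads carrying the immobilized SH2 domain, with library peptides lacking any tyrosine serving as negative controls.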

The first experiment concerns the target SHP2 C-SH2 domain E139D. In words: enrichment score (SH2-bound / input frequency) (ratio); bacterial display of known human phosphotyrosine sites (pTyr-Var adds point mutants) read by sequencing; higher = stronger binding; tyrosines were phosphorylated by kinases first. The settings on record: peptide library: Human pTyr.
As for SCAWCPWYRFCRGCK [UBP32_HUMAN_1173], the enrichment score is inactive: 0.583.
The same measure, in the same setting: the figure for SVGDEDIYSGLSDQI [VAV1_HUMAN_142] is inactive: 1.04; for SGLSSPIYIDLRGIV [UMPS_HUMAN_37] it is inactive: 1.86.
Still for that read-out and setting: in the case of GWWRGEIYGRVGWFP [VAV_HUMAN_826] it was inactive: 2.52; in that of TENDDDVYRSLEELA [VAV2_HUMAN_142], inactive: 1.08.
The same measure, in the same setting: the figure for ARGGQVFYNSEAGEL [VGFR3_HUMAN_1333_YA] is inactive: 0.577.
Take VCDPKFHYDNTAGIS [VGFR2_HUMAN_1214]: the enrichment score is inactive: 1.05.
For the molecule VHVGSRPYTEFPFGQ [VWA1_HUMAN_83], the enrichment score is inactive: 0.648.
In the case of ATSMFDDYQGDSSTL [VGFR1_HUMAN_1242], the enrichment score was inactive: 0.43.
Still for that read-out and setting: the figure for SFFDGDCYIILAIHK [VIL1_HUMAN_46] is inactive: 1.62; for CIPNLIEYVKQNIDN [VIR_HUMAN_914] it is inactive: 1.27.
Turning to GQRAQENYEGSEEVS [USP9X_HUMAN_2556], the enrichment score is inactive: 1.37.
The same measure, in the same setting: in the case of SRRIAVEYSDSDDDS [WASF3_HUMAN_486] it was inactive: 1.26; in that of AKEYGFRYELVQYRW [UGGG2_HUMAN_1289], inactive: 2.1.
Still for that read-out and setting: the figure for KKIANGDYARQGRIA [UFO_HUMAN_702_YA] is inactive: 1.03; for VQQDGKDYIPINAIL [VGFR1_HUMAN_1169] it is inactive: 1.13; for GSSDDVRYVNAFKFM [VGFR1_HUMAN_1213] it is active: 3.69.
Take VEEDASEYCGGGGGG [VAV_HUMAN_844_YA]: the enrichment score was inactive: 0.987.

The target of a further experiment is SHP2 C-SH2 domain wild-type. Described as above. The note with it: peptide library: Human pTyr.
With SCAWCPWYRFCRGCK [UBP32_HUMAN_1173], the enrichment score is inactive: 0.387.
On the same count and under the same terms, the figure for SVGDEDIYSGLSDQI [VAV1_HUMAN_142] is inactive: 0.812.
On the same count and under the same terms, in the case of SGLSSPIYIDLRGIV [UMPS_HUMAN_37] it was inactive: 1.58.
In the case of GWWRGEIYGRVGWFP [VAV_HUMAN_826], the enrichment score is inactive: 2.3.
For the molecule TENDDDVYRSLEELA [VAV2_HUMAN_142], the enrichment score was inactive: 1.24.
The same measure, in the same setting: the figure for ARGGQVFYNSEAGEL [VGFR3_HUMAN_1333_YA] is inactive: 0.521.
For the molecule VCDPKFHYDNTAGIS [VGFR2_HUMAN_1214], the enrichment score was inactive: 1.06.
The same measure, in the same setting: in the case of VHVGSRPYTEFPFGQ [VWA1_HUMAN_83] it was inactive: 0.621; in that of ATSMFDDYQGDSSTL [VGFR1_HUMAN_1242], inactive: 0.498; in that of SFFDGDCYIILAIHK [VIL1_HUMAN_46], inactive: 1.91.
For the molecule CIPNLIEYVKQNIDN [VIR_HUMAN_914], the enrichment score was inactive: 1.19.
GQRAQENYEGSEEVS [USP9X_HUMAN_2556]: the enrichment score is inactive: 0.812.
For SRRIAVEYSDSDDDS [WASF3_HUMAN_486], the enrichment score is inactive: 1.21.
As for AKEYGFRYELVQYRW [UGGG2_HUMAN_1289], the enrichment score is inactive: 1.91.
Consider KKIANGDYARQGRIA [UFO_HUMAN_702_YA], for which the enrichment score was inactive: 0.836.
As to VQQDGKDYIPINAIL [VGFR1_HUMAN_1169], the enrichment score is inactive: 0.946.
Consider GSSDDVRYVNAFKFM [VGFR1_HUMAN_1213], for which the enrichment score was active: 6.38.
Same read-out and setting: in the case of VEEDASEYCGGGGGG [VAV_HUMAN_844_YA] it was inactive: 0.798.

In a further experiment the target is SHP2 N-SH2 domain L43F. Described as above. The note with it: peptide library: Human pTyr.
Regarding SCAWCPWYRFCRGCK [UBP32_HUMAN_1173], the enrichment score was inactive: 0.478.
Consider SVGDEDIYSGLSDQI [VAV1_HUMAN_142], for which the enrichment score was inactive: 0.794.
On the same count and under the same terms, the figure for SGLSSPIYIDLRGIV [UMPS_HUMAN_37] is inactive: 1.28; for GWWRGEIYGRVGWFP [VAV_HUMAN_826] it is inactive: 2.16; for TENDDDVYRSLEELA [VAV2_HUMAN_142] it is inactive: 0.847.
The same measure, in the same setting: in the case of ARGGQVFYNSEAGEL [VGFR3_HUMAN_1333_YA] it was inactive: 0.498; in that of VCDPKFHYDNTAGIS [VGFR2_HUMAN_1214], inactive: 0.84.
Still for that read-out and setting: in the case of VHVGSRPYTEFPFGQ [VWA1_HUMAN_83] it was inactive: 0.776.
Consider ATSMFDDYQGDSSTL [VGFR1_HUMAN_1242], for which the enrichment score was inactive: 0.408.
For the molecule SFFDGDCYIILAIHK [VIL1_HUMAN_46], the enrichment score was inactive: 1.65.
Take CIPNLIEYVKQNIDN [VIR_HUMAN_914]: the enrichment score is inactive: 1.95.
Still for that read-out and setting: in the case of GQRAQENYEGSEEVS [USP9X_HUMAN_2556] it was inactive: 0.911.
As for SRRIAVEYSDSDDDS [WASF3_HUMAN_486], the enrichment score is inactive: 1.4.
The same measure, in the same setting: the figure for AKEYGFRYELVQYRW [UGGG2_HUMAN_1289] is inactive: 1.66; for KKIANGDYARQGRIA [UFO_HUMAN_702_YA] it is inactive: 0.793.
As to VQQDGKDYIPINAIL [VGFR1_HUMAN_1169], the enrichment score is inactive: 1.15.
The same measure, in the same setting: the figure for GSSDDVRYVNAFKFM [VGFR1_HUMAN_1213] is inactive: 1.76; for VEEDASEYCGGGGGG [VAV_HUMAN_844_YA] it is inactive: 1.13.

For a further experiment, the target named is SHP2 N-SH2 domain T42A. The description is as above. The settings on record: peptide library: Human pTyr.
In the case of SCAWCPWYRFCRGCK [UBP32_HUMAN_1173], the enrichment score is inactive: 0.475.
On the same count and under the same terms, the figure for SVGDEDIYSGLSDQI [VAV1_HUMAN_142] is inactive: 0.854; for SGLSSPIYIDLRGIV [UMPS_HUMAN_37] it is inactive: 1.84.
Regarding GWWRGEIYGRVGWFP [VAV_HUMAN_826], the enrichment score is inactive: 2.4.
The same measure, in the same setting: the figure for TENDDDVYRSLEELA [VAV2_HUMAN_142] is inactive: 1.09; for ARGGQVFYNSEAGEL [VGFR3_HUMAN_1333_YA] it is inactive: 0.62.
Still for that read-out and setting: in the case of VCDPKFHYDNTAGIS [VGFR2_HUMAN_1214] it was inactive: 1.11; in that of VHVGSRPYTEFPFGQ [VWA1_HUMAN_83], inactive: 0.704; in that of ATSMFDDYQGDSSTL [VGFR1_HUMAN_1242], inactive: 0.485.
For the molecule SFFDGDCYIILAIHK [VIL1_HUMAN_46], the enrichment score is inactive: 1.87.
On the same count and under the same terms, in the case of CIPNLIEYVKQNIDN [VIR_HUMAN_914] it was inactive: 1.51; in that of GQRAQENYEGSEEVS [USP9X_HUMAN_2556], inactive: 0.636; in that of SRRIAVEYSDSDDDS [WASF3_HUMAN_486], inactive: 0.959.
The same measure, in the same setting: in the case of AKEYGFRYELVQYRW [UGGG2_HUMAN_1289] it was inactive: 1.81; in that of KKIANGDYARQGRIA [UFO_HUMAN_702_YA], inactive: 0.782; in that of VQQDGKDYIPINAIL [VGFR1_HUMAN_1169], inactive: 1.06.
Regarding GSSDDVRYVNAFKFM [VGFR1_HUMAN_1213], the enrichment score is active: 3.3.
Consider VEEDASEYCGGGGGG [VAV_HUMAN_844_YA], for which the enrichment score was inactive: 0.874.

For the next experiment, the target named is SHP2 N-SH2 domain T52S. The experiment is described as above. The settings on record: peptide library: Human pTyr.
Regarding SCAWCPWYRFCRGCK [UBP32_HUMAN_1173], the enrichment score is inactive: 0.496.
Turning to SVGDEDIYSGLSDQI [VAV1_HUMAN_142], the enrichment score was inactive: 0.596.
Same read-out and setting: in the case of SGLSSPIYIDLRGIV [UMPS_HUMAN_37] it was inactive: 1.97.
On the same count and under the same terms, in the case of GWWRGEIYGRVGWFP [VAV_HUMAN_826] it was inactive: 2.83; in that of TENDDDVYRSLEELA [VAV2_HUMAN_142], inactive: 1.1; in that of ARGGQVFYNSEAGEL [VGFR3_HUMAN_1333_YA], inactive: 0.549.
Same read-out and setting: in the case of VCDPKFHYDNTAGIS [VGFR2_HUMAN_1214] it was inactive: 1.07; in that of VHVGSRPYTEFPFGQ [VWA1_HUMAN_83], inactive: 0.666.
Regarding ATSMFDDYQGDSSTL [VGFR1_HUMAN_1242], the enrichment score is inactive: 0.468.
The same measure, in the same setting: in the case of SFFDGDCYIILAIHK [VIL1_HUMAN_46] it was inactive: 1.92.
As for CIPNLIEYVKQNIDN [VIR_HUMAN_914], the enrichment score was inactive: 1.49.
Regarding GQRAQENYEGSEEVS [USP9X_HUMAN_2556], the enrichment score was inactive: 1.01.
As for SRRIAVEYSDSDDDS [WASF3_HUMAN_486], the enrichment score was inactive: 1.03.
On the same count and under the same terms, the figure for AKEYGFRYELVQYRW [UGGG2_HUMAN_1289] is inactive: 2.16.
Take KKIANGDYARQGRIA [UFO_HUMAN_702_YA]: the enrichment score is inactive: 0.935.
The same measure, in the same setting: in the case of VQQDGKDYIPINAIL [VGFR1_HUMAN_1169] it was inactive: 0.97; in that of GSSDDVRYVNAFKFM [VGFR1_HUMAN_1213], inactive: 1.59.
Regarding VEEDASEYCGGGGGG [VAV_HUMAN_844_YA], the enrichment score is inactive: 0.663.

In another experiment the target is SHP2 N-SH2 domain wild-type. Described as above. The settings on record: peptide library: Human pTyr.
In the case of SCAWCPWYRFCRGCK [UBP32_HUMAN_1173], the enrichment score is inactive: 0.489.
Same read-out and setting: in the case of SVGDEDIYSGLSDQI [VAV1_HUMAN_142] it was inactive: 0.917; in that of SGLSSPIYIDLRGIV [UMPS_HUMAN_37], inactive: 1.9.
For the molecule GWWRGEIYGRVGWFP [VAV_HUMAN_826], the enrichment score was active: 3.4.
Same read-out and setting: in the case of TENDDDVYRSLEELA [VAV2_HUMAN_142] it was inactive: 1.31; in that of ARGGQVFYNSEAGEL [VGFR3_HUMAN_1333_YA], inactive: 0.604; in that of VCDPKFHYDNTAGIS [VGFR2_HUMAN_1214], inactive: 1.24.
The same measure, in the same setting: in the case of VHVGSRPYTEFPFGQ [VWA1_HUMAN_83] it was inactive: 0.686; in that of ATSMFDDYQGDSSTL [VGFR1_HUMAN_1242], inactive: 0.528; in that of SFFDGDCYIILAIHK [VIL1_HUMAN_46], inactive: 2.
Consider CIPNLIEYVKQNIDN [VIR_HUMAN_914], for which the enrichment score is inactive: 1.84.
Take GQRAQENYEGSEEVS [USP9X_HUMAN_2556]: the enrichment score is inactive: 0.973.
Regarding SRRIAVEYSDSDDDS [WASF3_HUMAN_486], the enrichment score was inactive: 1.24.
For the molecule AKEYGFRYELVQYRW [UGGG2_HUMAN_1289], the enrichment score is inactive: 2.29.
Still for that read-out and setting: the figure for KKIANGDYARQGRIA [UFO_HUMAN_702_YA] is inactive: 1.2.
On the same count and under the same terms, in the case of VQQDGKDYIPINAIL [VGFR1_HUMAN_1169] it was inactive: 1.12; in that of GSSDDVRYVNAFKFM [VGFR1_HUMAN_1213], inactive: 0.912; in that of VEEDASEYCGGGGGG [VAV_HUMAN_844_YA], inactive: 0.951.
